# The campaign covered roughly 220,000 compounds. About 5,700 (2.6%) were called active. The shares of active, inactive and inconclusive entries below differ from those in the screen. Calls follow the shape of the dose curve; as a rule, active = well fitted inhibition curve with a large enough effect; inconclusive = small, poorly fitted or top-dose-only effect; inactive = no such curve, though single readings can be large or run the other way. Potencies of inconclusive entries are doubtful fits and often do not repeat.
# Molecular target: Lysine-specific demethylase 5B (Homo sapiens) (UniProt Q9UGL1)
# UniProt Q9UGL1, sequence (Q9UGL1 whole entry, looked up): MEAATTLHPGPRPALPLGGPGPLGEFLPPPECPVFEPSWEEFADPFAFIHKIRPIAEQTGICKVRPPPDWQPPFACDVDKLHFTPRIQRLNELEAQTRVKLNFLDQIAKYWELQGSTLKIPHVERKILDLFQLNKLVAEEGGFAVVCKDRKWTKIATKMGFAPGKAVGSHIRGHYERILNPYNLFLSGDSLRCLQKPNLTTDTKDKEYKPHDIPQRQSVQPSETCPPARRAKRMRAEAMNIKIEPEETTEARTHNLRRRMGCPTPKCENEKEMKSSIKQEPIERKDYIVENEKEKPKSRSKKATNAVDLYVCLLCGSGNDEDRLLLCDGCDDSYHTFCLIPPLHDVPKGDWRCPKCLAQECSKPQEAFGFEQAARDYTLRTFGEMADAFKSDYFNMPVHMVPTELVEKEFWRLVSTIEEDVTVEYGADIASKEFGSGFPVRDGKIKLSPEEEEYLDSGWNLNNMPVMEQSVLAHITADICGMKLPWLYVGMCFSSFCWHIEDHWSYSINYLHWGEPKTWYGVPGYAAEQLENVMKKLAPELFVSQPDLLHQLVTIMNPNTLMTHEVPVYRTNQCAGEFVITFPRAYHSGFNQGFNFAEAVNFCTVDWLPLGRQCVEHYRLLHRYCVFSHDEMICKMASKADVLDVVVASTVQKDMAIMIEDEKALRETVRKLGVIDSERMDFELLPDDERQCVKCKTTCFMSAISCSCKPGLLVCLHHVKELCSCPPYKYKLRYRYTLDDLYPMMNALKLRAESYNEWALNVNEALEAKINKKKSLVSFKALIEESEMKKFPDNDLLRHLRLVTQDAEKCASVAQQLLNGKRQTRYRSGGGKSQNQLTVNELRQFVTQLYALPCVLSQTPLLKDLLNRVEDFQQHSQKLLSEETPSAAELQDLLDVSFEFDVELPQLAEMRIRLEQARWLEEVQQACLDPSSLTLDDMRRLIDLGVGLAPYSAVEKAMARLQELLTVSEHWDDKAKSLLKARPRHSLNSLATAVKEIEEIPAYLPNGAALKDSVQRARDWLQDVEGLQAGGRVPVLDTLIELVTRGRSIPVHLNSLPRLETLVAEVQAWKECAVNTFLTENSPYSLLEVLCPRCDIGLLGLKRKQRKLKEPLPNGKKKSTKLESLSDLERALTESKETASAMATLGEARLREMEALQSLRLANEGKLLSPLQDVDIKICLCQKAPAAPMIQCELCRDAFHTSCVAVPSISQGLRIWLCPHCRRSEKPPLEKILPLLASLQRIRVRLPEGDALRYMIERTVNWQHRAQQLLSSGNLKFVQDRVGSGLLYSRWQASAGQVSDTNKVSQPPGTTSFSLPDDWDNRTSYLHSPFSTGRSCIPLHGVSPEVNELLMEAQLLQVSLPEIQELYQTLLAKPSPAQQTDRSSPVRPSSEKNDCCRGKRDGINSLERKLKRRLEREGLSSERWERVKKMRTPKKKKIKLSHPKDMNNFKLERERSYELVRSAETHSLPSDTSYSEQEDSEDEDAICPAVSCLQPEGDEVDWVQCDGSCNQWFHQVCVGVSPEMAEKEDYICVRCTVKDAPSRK
# Test: Primary screen for KDM5B Histone Demethylases FDH-coupled qHTS; also: nearly all actives have a fitted effect of over 70% in size; as to activity change, negative = inhibition: 0% is about no effect
# Conditions: FDH-coupled NADH fluorescence (FDH is formaldehyde dehydrogenase); activity change, negative = inhibition: at 57.7 µM (top of the series) unless noted
# Method in brief: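 Compound dilutions met 200 nM (final) KDM5BΔAP for 10 min at room temperature before substrate addition. The substrate mix held 12.5 µM H3K4me3 with cofactors 25 µM α-ketoglutarate and 50 µM Fe²⁺. NADH signal gain over 30 min defined activity.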
# Potency is read from the fitted curve at half-maximal effect; tags tell the direction and shape of the fitted curve.
SMILES,"activity change, negative = inhibition",Potency
Cc1cc(C)nc(NC(=O)Nc2ccc(C)c(F)c2)c1,inactive: 4.73%,
CCc1nonc1NC(=O)c1oc2ccc(C)cc2c1C,,"inconclusive: 31.6 µM [inhibitor, single point]"
CC(C)c1nnc2sc(/C=C/c3ccc4c(c3)OCO4)nn12,,"inconclusive: 31.6 µM [inhibitor, partial curve, poor fit]"
Cc1ccc2nc(C(=O)NCc3nncn3CCc3ccccc3)cn2c1,,"inconclusive: 28.2 µM [inhibitor, partial curve, poor fit]"
CCOc1ccc(N2C(=O)c3n[nH]c(-c4cccs4)c3C2c2cccc(F)c2)cc1 (stereo not drawn),,"inconclusive: 39.8 µM [inhibitor, single point]"
COc1nc2nc(CC3CC3)n(C)c2cc1-c1ccc(O)c(F)c1,,"inconclusive: 39.8 µM [inhibitor, partial curve, poor fit]"
COC(=O)[C@@H]1Cc2ncn(Cc3ccc(OC)cc3)c2CN1Cc1cccc(C#N)c1,,"inconclusive: 39.8 µM [inhibitor, single point]"
CCOc1ccc(S(=O)(=O)N2CCN(c3ccc(C)c(Cl)c3)CC2)c2ccccc12,inactive: 11%,
O=C(CSc1ncnc2ccccc12)Nc1ccc(F)cc1,,"inconclusive: 28.2 µM [inhibitor, partial curve, poor fit]"
Cc1ccc(CNC(=O)CCCn2nc(C)c3c(C)n(-c4ccccc4)nc3c2=O)cc1,,"inconclusive: 22.4 µM [inhibitor, single point]"
Cc1ccsc1C(=O)N1CCCC(n2cc(-c3nc(C(C)C)no3)nn2)C1 (stereo not drawn),inactive: -4.98%,
COc1ccc(NC(=O)c2sc3c(c2C)C(c2cccc(C(F)(F)F)c2)CC(=O)N3)cc1 (stereo not drawn),inactive: 95.2%,
COc1ccc(C2CC(=O)C3=C(C2)OC(N)=C(C#N)C3c2cccc(Br)c2)cc1 (stereo not drawn),inactive: -2.2%,
C/C=C(/C)C(=O)OC1Cc2cc3ccc(=O)oc3cc2OC1(C)C (stereo not drawn),,"inconclusive: 20 µM [inhibitor, partial curve, poor fit]"
Cn1nc(C(=O)NCc2cccc(Cl)c2)c2c1-c1ccccc1OC2,inactive: 11.8%,
Fc1ccccc1-c1cc2c(cn1)CN(Cc1ccncc1)CCN2,,"inconclusive: 35.5 µM [inhibitor, partial curve, poor fit]"
O=C(c1cccn2cncc12)N1CCOCC1,,"inconclusive: 39.8 µM [inhibitor, partial curve]"
COc1ccc(-c2cn3c(n2)CO[C@@H](CNC(=O)C(C)(C)C)C3)cc1,,"inconclusive: 50.1 µM [inhibitor, single point]"
CCC1c2ccsc2CCN1C(=O)CNC(=O)c1ccc(Cl)cc1Cl (stereo not drawn),inactive: 1.6%,
O=C(Nc1nn(Cc2ccccc2)c2cccc(N3CCOCC3)c12)C1CCC1,,active: 25.1 µM
COc1ccc(C2c3c(n(C)c4ccccc34)C(=O)N2CC(=O)Nc2cc(Cl)ccc2C)cc1 (stereo not drawn),,"inconclusive: 17.8 µM [inhibitor, partial curve, poor fit]"
CN(C)C(=O)c1cccnc1OC1CCN(CCc2ccccc2)CC1,inactive: -8.58%,
C=CCNc1nc(-c2cc(C)n(-c3c(C)n(C)n(-c4ccccc4)c3=O)c2C)cs1,inactive: -19.2%,

SMILES,"activity change, negative = inhibition",Potency
COCCOC(=O)C(C#N)c1nc2ccccc2nc1N1CCN(c2ccccc2OC)CC1 (stereo not drawn),,"inconclusive: 10 µM [inhibitor, partial curve, poor fit]"
Cc1cc(=O)n2c(C(=O)Nc3cccc(Cl)c3)c(C(=O)Nc3ccccc3)sc2n1,inactive: -19%,
Cc1cc(NCc2cccnc2)n2nc(C(F)(F)F)c(-c3ccccc3Cl)c2n1,,"inconclusive: 28.2 µM [inhibitor, partial curve, poor fit]"
O=C(CC1CC1)N1CC(F)(F)C[C@H]1c1nc(-c2ccncc2)no1,inactive: -4.27%,
CN(Cc1ccccc1)C(=O)[C@@H]1Cc2nc[nH]c2CN1C(=O)CCC(=O)O,,"inconclusive: 31.6 µM [inhibitor, partial curve]"
CNC(=O)[C@@H]1C[C@@H](n2cc(C(C)(C)NC(=O)c3cccc(Cl)c3)nn2)CN1,,"inconclusive: 17.8 µM [inhibitor, partial curve, poor fit]"
O=S(=O)(NCc1csc(-c2cccs2)n1)c1cccc(C(F)(F)F)c1,,"inconclusive: 22.4 µM [inhibitor, single point]"
COC(=O)c1ccc(NC(=O)CC2Nc3cc(C)c(C)cc3NC2=O)cc1 (stereo not drawn),,"inconclusive: 28.2 µM [inhibitor, partial curve, poor fit]"
O=C1c2ccccc2C(=O)N1CCSc1ncc(C(F)(F)F)cc1Cl,inactive: -6.41%,
Cc1nc(SCC(=O)Nc2sc3c(c2C#N)CCCCC3)c2ccccc2n1,inactive: 10.2%,
O=C1C(Cl)=C(Nc2ccc3cn[nH]c3c2)C(=O)c2ccccc21,,"inconclusive: 15.8 µM [inhibitor, partial curve, poor fit]"
COc1ccc(C(=O)N2CCN(c3nc(C4CC4)nc4sc(C)c(C)c34)CC2)cc1,,"inconclusive: 22.4 µM [inhibitor, single point]"
Cc1ccc(-c2cc(C(=O)OCC(=O)NCC3CCCO3)c3ccccc3n2)o1 (stereo not drawn),,"inconclusive: 22.4 µM [inhibitor, partial curve, poor fit]"
O=C(NCc1cccc(F)c1)c1cnc2c(c1)N(Cc1ccccc1)CCC2,,active: 5.62 µM
Cc1noc2c(NCC3CCOCC3)cc(-c3ccc(F)cc3)nc12,,"inconclusive: 44.7 µM [inhibitor, single point]"
Cc1ccc(NC(=O)N2CCc3c(C(=O)NC(C)C)cccc32)cc1,inactive: 4%,
CN(C)CC(O)COc1ccc(CN2CCN(c3ncc[nH]c3=O)CC2)cc1 (stereo not drawn),,"inconclusive: 1.12 µM [inhibitor, partial curve, poor fit]"
O=C(c1nnc(CN2CCN(c3ccccn3)CC2)n1-c1ccccc1)N1CCC[C@@H]1c1nc2ccccc2[nH]1,,"inconclusive: 31.6 µM [inhibitor, partial curve, poor fit]"
COc1cccc(C(=O)Nc2ccc3c(c2)CN(Cc2cccc(OC)c2OC)C(=O)C(C)O3)c1 (stereo not drawn),,"inconclusive: 39.8 µM [inhibitor, single point]"
COC(=O)c1sc(NC(=O)COc2ccc(C)cc2C)nc1C,inactive: 16.4%,
COC[C@@H]1[C@H](NC(=O)c2ccc(OCCNC(C)=O)cc2)[C@@H]2CCO[C@H]12,inactive: 39.1%,
COC(=O)COc1ccc2c(C)c(-c3ccc(Cl)cc3)c(=O)oc2c1,,"inconclusive: 2 µM [inhibitor, full curve, poor fit]"
N#Cc1ccc(C(=O)NCC(=O)N2CCCCCCNC(=O)CC2c2ccccc2)cc1 (stereo not drawn),inactive: -0.846%,

SMILES,"activity change, negative = inhibition",Potency
C=CCNc1nc(-c2c(C(=O)OC)c(C)n(C(C)C)c2C)cs1,inactive: -7.8%,
C=CCOc1cccc(NC(C)=O)c1,inactive: -1.99%,
Cc1cccc(C)c1-c1cc(C(=O)NC2CC2)c2cnn(C)c2n1,,"inconclusive: 89.1 µM [inhibitor, single point]"
CC(NC(=O)CC(C)(C(=O)O)c1ccccc1)c1ccc(F)c(F)c1 (stereo not drawn),inactive: 27.3%,
O=C(O)c1cccc(Nc2ncnc3ccc(Br)cc23)c1,,"inconclusive: 2.24 µM [inhibitor, partial curve, poor fit]"
Cc1nn(C)c2c1c(C(F)(F)F)cc(=O)n2CC(=O)N1CCCCC1,,"inconclusive: 31.6 µM [inhibitor, partial curve, poor fit]"
Cc1ccc(C(=O)Nc2nc3n(n2)C(c2ccc(F)cc2)C=C(c2ccccc2)N3)cc1 (stereo not drawn),,"inconclusive: 15.8 µM [inhibitor, partial curve, poor fit]"
COc1ccc(CN2CC[C@H](c3nnc(-c4ccncc4)o3)C2)cc1,inactive: -17.3% [at 86.2 µM],
O=C(CSc1nc2ccccc2o1)Nc1ccc2ccccc2c1,inactive: -18.6%,
COc1ccc(Nc2nccc3c(=O)cc(-c4ccccn4)oc23)cc1OC,,"inconclusive: 28.2 µM [inhibitor, single point]"
COc1cccc(CN2C(=O)OC3(CCN(C(=O)c4scnc4C)CC3)C2(C)c2cccnc2)c1 (stereo not drawn),,"inconclusive: 25.1 µM [inhibitor, partial curve]"
O=C(CSc1ncnc2nc[nH]c12)Nc1cc(Cl)cc(Cl)c1,inactive: 2.51%,
CC(C)=C(/C(=C/CS(=O)(=O)c1ccccc1)S(=O)(=O)c1ccccc1)S(=O)(=O)c1ccccc1,,"inconclusive: 28.2 µM [inhibitor, partial curve, poor fit]"
CCOc1ccc(NC(=O)C(C)O)c(N)c1 (stereo not drawn),inactive: 2.81%,
Cc1c(C)c2cc(Cl)c(OC(C)C(=O)NCc3ccccn3)cc2oc1=O (stereo not drawn),,"inconclusive: 10 µM [inhibitor, partial curve, poor fit]"
Cc1cccc(NC(=S)Nc2cccc3ccccc23)c1,,"inconclusive: 28.2 µM [inhibitor, partial curve, poor fit]"
Cc1ccc2c(CN3CCN(CCc4ccncc4)CC3)cc(=O)oc2c1,inactive: 3.35%,
COc1ccc2nc3n(c2c1)[C@@H](CNS(=O)(=O)c1ccc(F)cc1)COC3,inactive: 10.6% [at 86.2 µM],
Cc1ccc(CN2Cc3[nH]cnc3C[C@H]2c2nc(C(C)C)no2)cc1,,"inconclusive: 31.6 µM [inhibitor, partial curve, poor fit]"
COc1ccc2c(c1OC)C(=O)OC2Nc1nc(-c2ccc(Br)cc2)cs1 (stereo not drawn),inactive: -18.1%,
COC(=O)C1=C(C)N=C2SC=C(CC(=O)NCc3cccc(F)c3)N2C1c1cccc(OC)c1 (stereo not drawn),,"inconclusive: 22.4 µM [inhibitor, partial curve, poor fit]"
CN1[C@@H](CCC(=O)Nc2ccccc2)CNC(=O)[C@@H]2[C@H]1CCN2Cc1ccc(C(F)(F)F)cc1,,"inconclusive: 35.5 µM [inhibitor, partial curve, poor fit]"

# From PubChem BioAssay AID1347165 (National Center for Advancing Translational Sciences (NCATS), 2019)
